PubChem BioAssay AID463173 (ICCB-Longwood Screening Facility, Harvard Medical School, 2010)
The campaign covered roughly 52,000 compounds. About 1,700 (3.3%) were called active. Cut-off read from the data, not from the text of the source: active = survival mostly below about 52% (no sharp cut-off); inactive = mostly above about 56%. This is one part of the list.

System: Wild type
Test: S. aureus survival, RN4220 and DeltatarO strains – OD600, teichoic acid synthesis inhibitors, primary screen (AID 463173)
Details: S. aureus RN4220 wild type/DeltatarO growth, OD600, 18 h, stronger effect = lower value, screened at 18.75 µg/mL (by protocol)

| SMILES | survival |
| --- | --- |
| COc1ccc(-n2ccnc2SCC(=O)Nc2nnc(C)s2)cc1 | inactive: 124% |
| Cc1ccccc1N(C)S(=O)(=O)c1nnc(NC(=O)c2ccccc2F)s1 | inactive: 33% |
| COCCNc1c(-c2ccccc2)nc2cc(C)ccn12 | inactive: 105% |
| COc1cccc(Cn2c(CNC(=O)CCc3ccccc3)nc3cccnc32)c1 | inactive: 72% |
| Cc1ccc(NC(=O)C(=O)NCCc2sc(-c3ccc(Cl)cc3)nc2C)cc1C | inactive: 126% |
| COc1cccc(CNC(=O)CCn2nc(C)c3c(C)n(-c4ccccc4)nc3c2=O)c1 | inactive: 82% |
| CN(c1ccccc1)S(=O)(=O)c1nnc(NC(=O)C2CCCCC2)s1 | inactive: 87% |
| CC(C)(C)OC(=O)N1CCN(c2ccc(NC(=O)Cn3nnc(-c4ccccc4)n3)cc2)CC1 | inactive: 110% |
| Cc1c(Cl)cccc1NC(=O)CCS(=O)(=O)c1ccc2c(c1)oc(=O)n2C | inactive: 78% |
| CCOC(=O)c1c(C)c(C(=O)NCc2ccc(OC)cc2)c(C)n1CC | inactive: 94% |
| COc1ccc(NCc2cc3cc4c(cc3n(CC(=O)Nc3ccc(F)cc3)c2=O)OCCO4)cc1 | inactive: 77% |
| COc1cccc(C(=O)N(Cc2cccnc2)c2nc3c(OC)ccc(C)c3s2)c1OC | inactive: 69% |
| COc1ccc(C2(C(=O)NC(C)C)CCOCC2)cc1 | inactive: 88% |
| O=C(CSc1nc2ccccc2nc1Cc1ccc(Cl)cc1)N1CCCc2ccccc21 | inactive: 68% |
| CCOc1cc(C2CC(=O)Nc3cc4c(cc32)OCCO4)ccc1O (centres undefined) | inactive: 78% |
| COC(=O)C(C)Sc1nc2c(cnn2-c2ccc(F)cc2)c(=O)[nH]1 (centres undefined) | inactive: 89% |
| N#Cc1c(NC(=O)c2cccnc2)sc2c1CCCC2 | inactive: 108% |
| CCOc1ccccc1NS(=O)(=O)c1ccc2c(c1)CC(C)N2C(=O)C1CCC1 (centres undefined) | inactive: 74% |
| Cc1ccc(OCCn2c(CCNC(=O)C3CCCCC3)nc3ccccc32)cc1 | inactive: 65% |
| COc1cccc(C(=O)NCc2cn3ccccc3n2)c1 | inactive: 86% |
| c1cncc(-c2nc(NCc3ccco3)c3ccccc3n2)c1 | inactive: 119% |
| Cc1ccc2c(=O)cc(C(=O)Nc3ccc(S(=O)(=O)N(C)Cc4ccccc4)cc3)oc2c1C | inactive: 109% |
| COc1ccc(S(=O)(=O)N2CCN(C)CC2)c(Cl)c1Cl | inactive: 104% |

| SMILES | survival |
| --- | --- |
| O=C(NCCCO)C(=O)NCC(c1ccc2c(c1)OCO2)N1CCOCC1 (centres undefined) | active: 10% |
| CCOc1ccc(OCC)c(NS(=O)(=O)c2c(C(=O)N3CCCCCC3)c(C)n(C)c2C)c1 | inactive: 71% |
| CCOc1ccc(C(=O)c2cn(CC(=O)Nc3ccc(F)cc3)c3cc4c(cc3c2=O)OCCO4)cc1 | inactive: 131% |
| O=C(CSc1nnc(-c2ccccc2)c(-c2ccccc2)n1)NC1CCCC1 | inactive: 73% |
| O=C(O)C1C2C=CC(C2)C1C(=O)N1CCN(Cc2ccccc2)CC1 (centres undefined) | inactive: 94% |
| CCOC(=O)C1CCCN(S(=O)(=O)c2cc3c4c(c2)CC(=O)N4CCC3)C1 (centres undefined) | inactive: 74% |
| COc1ccc(C)cc1NC(=O)C1COc2ccccc2C1 (centres undefined) | inactive: 82% |
| Fc1ccc(-n2cc(-c3ccccc3)c3c(NCCc4ccccc4)ncnc32)cc1 | inactive: 73% |
| CCc1ccc(NC(=O)Cn2c(=O)n(CCCCC(=O)NCCc3ccccc3)c(=O)c3ccccc32)cc1 | inactive: 97% |
| CCC(C)(C)NC(=O)C1CCN(S(=O)(=O)c2c(C)noc2/C=C/c2ccc(C)cc2)CC1 | inactive: 64% |
| COc1ccc(NC(=O)C2=CC(c3ccc4c(c3)OCO4)=NS(=O)(=O)N2C)cc1 | inactive: 94% |
| COc1cccc(CNC(=O)c2oc3c(c2C)-c2nn(Cc4cccc(Cl)c4)cc2CC3)c1 | inactive: 99% |
| CCOC(=O)c1c(NC(=O)COc2c(C)cc(Cl)cc2Cl)sc2c1CCCC2 | inactive: 53% |
| COc1ccc(-c2noc(CC(=O)Nc3ccc(Br)cc3C)n2)cc1 | inactive: 98% |
| COc1ccc(S(=O)(=O)NCC(c2ccc(N(C)C)cc2)N2CCCC2)cc1 (centres undefined) | inactive: 73% |
| O=C1CCS(=O)(=O)CC1 | inactive: 104% |
| Cc1cc(C)c(/C=C/c2onc(C)c2S(=O)(=O)N2CCC(C(=O)N(C)Cc3ccccc3)CC2)c(C)c1 | inactive: 68% |
| Cc1ccc(NC(=O)Nc2nnc(N(C)C3CCCCC3)s2)c(Cl)c1 | inactive: 95% |
| COC(=O)C[n+]1ccc(C)cc1 | inactive: 99% |
| Cc1ccc(-n2c(=O)c3c4c(sc3n(Cc3ccccc3C)c2=O)CCC4)cc1C | inactive: 96% |
| Cc1ccccc1C(=O)Nc1nc2nc(-c3ccccc3)cc(=O)n2[nH]1 | inactive: 88% |
| CCOC(=O)C1(CC)CC(C)(c2csc(N)n2)OC1=O (centres undefined) | inactive: 108% |
| COC(=O)CN(c1ccc(C)c(C)c1)S(C)(=O)=O | inactive: 98% |

| SMILES | survival |
| --- | --- |
| O=C(Nc1ccc2c(c1)OCO2)c1cc(-c2ccc(Br)cc2)on1 | inactive: 89% |
| Clc1cccc(-n2cc(-c3ccccc3)c3c(N4CCCCC4)ncnc32)c1 | inactive: 70% |
| CCN1C(C(=O)c2ccccc2)=C(OC(=O)c2ccc(OC)cc2)c2ccccc2S1(=O)=O | inactive: 79% |
| Cc1ccc(Cn2c(=N)n(CC(=O)c3ccccc3)c3ccccc32)cc1 | inactive: 107% |
| Cc1ccc(NC(=O)c2oc3ccc(S(=O)(=O)N4CCCCC4)cc3c2C)cc1Cl | inactive: 83% |
| CCN(Cc1ccccc1)C(=O)CCc1c(C)nc2c(c(C)nn2-c2ccc(C)c(C)c2)c1C | inactive: 75% |
| CCOC(=O)N1CC=C2C(C#N)=C(N)C(C#N)(C#N)C(Cc3ccccc3)C2C1 (centres undefined) | inactive: 111% |
| CCc1cccc(C)c1NC(=O)Cn1cc2c(n1)CCCC2 | inactive: 85% |
| Cn1c(=O)c2c(-c3ccc(Br)cc3)n(CCc3ccccc3)cc2n(C)c1=O | inactive: 47% |
| Cc1ccc(CCNC(=O)c2nn(C)c3c2CSc2ccccc2-3)cc1 | inactive: 90% |
| CCCCOc1ccc(CNC(=O)CN2CCSc3ccccc32)cc1 | inactive: 69% |
| CCN(CC)c1nc(OCC(F)(F)F)nc(N(c2ccccc2)c2ccccc2)n1 | inactive: 92% |
| O=S(=O)(c1ccc(Br)cc1)c1nc(-c2ccco2)oc1SCc1ccccc1Cl | inactive: 137% |
| CCCNC(=O)C1CCC(Cn2c(=O)c3sccc3n(Cc3cccc(OC)c3)c2=O)CC1 (centres undefined) | inactive: 60% |
| CCC(C(=O)N1CCN(c2cccc(C)c2C)CC1)n1nc(C)c2sc3ccccc3c2c1=O (centres undefined) | inactive: 76% |
| CCn1nnc2cc(C(=O)Nc3cccc(Cl)c3)ccc21 | inactive: 87% |
| Cc1nc2nc(NC(=O)c3cccc(Cl)c3)[nH]n2c(=O)c1Cc1ccccc1 | inactive: 117% |
| COc1cccc(CNC(=O)CCn2c(=O)c3cccn3c3ccc(F)cc32)c1OC | inactive: 77% |
| COc1ccc(-n2nc(C(=O)N(C)c3cccc(C(F)(F)F)c3)c3c4ccccc4n(C)c3c2=O)cc1 | inactive: 129% |
| Cc1ccc(NC(=O)CCn2c(=O)c3cccn3c3ccccc32)c(Cl)c1 | inactive: 73% |
| COc1ccc(CCNC(=O)CCc2c(C)nc3c(c(C)nn3-c3ccc(C)c(C)c3)c2C)c(OC)c1OC | inactive: 91% |
| CCOC(=O)C1CCC(CN(Cc2ccccc2)S(=O)(=O)c2ccc(Cl)cc2)CC1 (centres undefined) | inactive: 82% |
| CCOc1ccc(-n2c(-c3ccc(C)cc3)nc3c(cnn3-c3ccccc3)c2=O)cc1 | inactive: 63% |

| SMILES | survival |
| --- | --- |
| CCN(CC)CCC(=O)c1ccc(OC(C)C)cc1 | inactive: 106% |
| COc1ccc(CCNC(=O)Cn2cc(C(=O)c3ccccc3)c(=O)c3ccc(C)nc32)cc1OC | inactive: 135% |
| CCOC(=O)c1c(S(=O)(=O)N2CCC(C(=O)Nc3ccccc3OC)CC2)c(C)n(CC)c1C | inactive: 71% |
| CCn1cc(C(=O)NCCc2ccc(C)cc2)c(=O)c2cc(S(=O)(=O)N(C)C)ccc21 | inactive: 84% |
| Cc1cc(C)c(Cn2c3ccccc3c3cnn(CC(=O)N4CCCCC4)c(=O)c32)c(C)c1 | inactive: 125% |
| Cc1ccccc1C(=O)Nc1ccccc1C(=O)OCc1cc(=O)n2ccsc2n1 | inactive: 98% |
| CN1C(=O)CC(=O)N(C)c2cc(S(=O)(=O)N(C)Cc3ccccc3)ccc21 | inactive: 24% |
| COc1cccc(N2CC(NC(=O)Cc3cccs3)CC2=O)c1 (centres undefined) | inactive: 73% |
| CCOc1ccc(OCC)c(Nc2nc3ccccc3c3nnc(C)n23)c1 | inactive: 81% |
| Cc1c(Cl)cccc1NS(=O)(=O)c1ccc2[nH]cc(C(=O)NC3CCCC3)c(=O)c2c1 | active: 11% |
| CCCCN(CCCC)CCNC(=O)c1cn(C)c2ccc(S(=O)(=O)N3CCOCC3)cc2c1=O | inactive: 84% |
| CC(=O)c1cccc(NS(=O)(=O)c2ccc3[nH]c4c(c3c2)CCCCCC4)c1 | inactive: 63% |
| Cc1ccc(-n2ncc(C(=O)NCCN3CCN(C)CC3)c2C2CCN(C(=O)OC(C)(C)C)CC2)c(C)c1 | inactive: 79% |
| Cc1ccc(S(=O)(=O)c2nc(-c3cccs3)oc2N2CCCCC2)cc1 | inactive: 50% |
| COc1ccc2c(c1)c1c(c(=O)n(-c3ccc(OC)c(OC)c3)c(=O)n1Cc1ccccc1C)n2C | inactive: 73% |
| O=C(O)CC(c1ccc(F)cc1)c1ccco1 (centres undefined) | inactive: 106% |
| N#CC1=C(N)SC(N)=C(C#N)C1CCC1CCCCC1 | inactive: 49% |
| COc1ccc(N(C(=O)/C=C\C(=O)Nc2ccc(Cl)cc2)C(C(=O)NCc2ccco2)c2ccc(C)cc2)cc1 (centres undefined) | inactive: 111% |
| COc1ccc(NC(=O)CCS(=O)(=O)c2nc(-c3cccs3)cc(C(F)(F)F)n2)cc1OC | inactive: 100% |
| CN(Cc1ccccc1)C(=O)CN1C(=O)CSc2ccc(S(=O)(=O)N3CCOCC3)cc21 | inactive: 75% |
